The other results are listed elsewhere or left out.

For this assay, the target named is T1, MBP-FoxP1dN (Mus musculus, UniProt P58462 326-579).
T1 sequence: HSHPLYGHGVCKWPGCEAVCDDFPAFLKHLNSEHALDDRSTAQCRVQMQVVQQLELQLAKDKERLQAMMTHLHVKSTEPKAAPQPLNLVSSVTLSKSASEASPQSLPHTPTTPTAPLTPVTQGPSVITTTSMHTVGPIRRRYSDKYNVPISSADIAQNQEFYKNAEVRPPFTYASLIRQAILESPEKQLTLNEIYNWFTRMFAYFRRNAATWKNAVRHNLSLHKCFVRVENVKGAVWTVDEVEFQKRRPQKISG
Description: PD-seq (MBP pull-down with sequencing); 20 mM Tris-HCl pH 7.5, 100 mM NaCl, 1.5 mM MgCl2, 0.4 uM protein, 0.1 uM dsDNA library, 30 min, room temperature, amylose pull-down; high values mean tight binding. The note with it: protein: recombinant; tags: His6-MBP; chain copies: 2; dsDNA, one strand shown. In outline: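 The N-terminus-lacking fragment of mouse FoxP3 or FoxP1 carried a His6-MBP tag and was expressed in E. coli. At 0.4 µM it was incubated with 0.1 µM Klenow-filled degenerate double-stranded DNA library for 30 min at room temperature in Tris pH 7.5 buffer with NaCl and MgCl2, and complexes were caught on amylose resin, washed three times, released with proteinase K, PCR-barcoded and Illumina-sequenced. Binding is reads-per-million enrichment of pull-down over input with replicates pooled.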
With “GATGATTGTTCTCCCAGCTGATGAATTAATTAACTCGAGTAAACAAATTTTCCTAATCTTTCTGTTCAAGCGCCATCTAC”, the binding signal was 0.983 RPM ratio (pull-down/input).

Consider “GATGATTGTTCTCCCAGCTGATGAATTTACGCACTCGAGTAAACAAATTTTCCTAATCTTTCTGTTCAAGCGCCATCTAC”, for which the binding signal is 1.2 RPM ratio (pull-down/input).

“GATGATTGTTCTCCCAGCTGATGAATTCTACCAGTCGAGTAAACAAATTTTCCTAATCTTTCTGTTCAAGCGCCATCTAC”: the binding signal is 0.811 RPM ratio (pull-down/input).

As to “GATGATTGTTCTCCCAGCTGATGAATTTACGGTGTCGAGTAAACAAATTTTCCTAATCTTTCTGTTCAAGCGCCATCTAC”, the binding signal is 1.11 RPM ratio (pull-down/input).

Regarding “GATGATTGTTCTCCCAGCTGATGAATTCTTTAACTCGAGTAAACAAATTTTCCTAATCTTTCTGTTCAAGCGCCATCTAC”, the binding signal is 0.907 RPM ratio (pull-down/input).

For the sequence “GATGATTGTTCTCCCAGCTGATGAATTAAAAAGATCGAGTAAACAAATTTTCCTAATCTTTCTGTTCAAGCGCCATCTAC”, the binding signal was 0.931 RPM ratio (pull-down/input).

Regarding “GATGATTGTTCTCCCAGCTGATGAATTGGTAAGATCGAGTAAACAAATTTTCCTAATCTTTCTGTTCAAGCGCCATCTAC”, the binding signal is 1.01 RPM ratio (pull-down/input).

For “GATGATTGTTCTCCCAGCTGATGAATTTGCGGTTTCGAGTAAACAAATTTTCCTAATCTTTCTGTTCAAGCGCCATCTAC”, the binding signal is 0.97 RPM ratio (pull-down/input).

As to “GATGATTGTTCTCCCAGCTGATGAATTCGTCGACTCGAGTAAACAAATTTTCCTAATCTTTCTGTTCAAGCGCCATCTAC”, the binding signal was 0.821 RPM ratio (pull-down/input).

In the case of “GATGATTGTTCTCCCAGCTGATGAATTATTAGCATCGAGTAAACAAATTTTCCTAATCTTTCTGTTCAAGCGCCATCTAC”, the binding signal is 1.52 RPM ratio (pull-down/input).

Consider “GATGATTGTTCTCCCAGCTGATGAATTAAGTACTTCGAGTAAACAAATTTTCCTAATCTTTCTGTTCAAGCGCCATCTAC”, for which the binding signal was 0.913 RPM ratio (pull-down/input).

As for “GATGATTGTTCTCCCAGCTGATGAATTCCCGGATTCGAGTAAACAAATTTTCCTAATCTTTCTGTTCAAGCGCCATCTAC”, the binding signal is 0.798 RPM ratio (pull-down/input).

Turning to “GATGATTGTTCTCCCAGCTGATGAATTGTATATGTCGAGTAAACAAATTTTCCTAATCTTTCTGTTCAAGCGCCATCTAC”, the binding signal is 1.46 RPM ratio (pull-down/input).

Take “GATGATTGTTCTCCCAGCTGATGAATTCTTCGGGTCGAGTAAACAAATTTTCCTAATCTTTCTGTTCAAGCGCCATCTAC”: the binding signal was 0.773 RPM ratio (pull-down/input).

As for “GATGATTGTTCTCCCAGCTGATGAATTGGCATATTCGAGTAAACAAATTTTCCTAATCTTTCTGTTCAAGCGCCATCTAC”, the binding signal is 0.976 RPM ratio (pull-down/input).

In the case of “GATGATTGTTCTCCCAGCTGATGAATTTGATTAGTCGAGTAAACAAATTTTCCTAATCTTTCTGTTCAAGCGCCATCTAC”, the binding signal is 1.04 RPM ratio (pull-down/input).

Turning to “GATGATTGTTCTCCCAGCTGATGAATTGACGTCTTCGAGTAAACAAATTTTCCTAATCTTTCTGTTCAAGCGCCATCTAC”, the binding signal was 1.1 RPM ratio (pull-down/input).

As to “GATGATTGTTCTCCCAGCTGATGAATTATGCTAATCGAGTAAACAAATTTTCCTAATCTTTCTGTTCAAGCGCCATCTAC”, the binding signal was 1.21 RPM ratio (pull-down/input).

In the case of “GATGATTGTTCTCCCAGCTGATGAATTCGACTATTCGAGTAAACAAATTTTCCTAATCTTTCTGTTCAAGCGCCATCTAC”, the binding signal was 0.904 RPM ratio (pull-down/input).

With “GATGATTGTTCTCCCAGCTGATGAATTAAAGAGCTCGAGTAAACAAATTTTCCTAATCTTTCTGTTCAAGCGCCATCTAC”, the binding signal is 0.774 RPM ratio (pull-down/input).

For “GATGATTGTTCTCCCAGCTGATGAATTTAAATTTTCGAGTAAACAAATTTTCCTAATCTTTCTGTTCAAGCGCCATCTAC”, the binding signal was 0.987 RPM ratio (pull-down/input).

With “GATGATTGTTCTCCCAGCTGATGAATTCACCGATTCGAGTAAACAAATTTTCCTAATCTTTCTGTTCAAGCGCCATCTAC”, the binding signal was 0.876 RPM ratio (pull-down/input).

For the sequence “GATGATTGTTCTCCCAGCTGATGAATTAGTTGCTTCGAGTAAACAAATTTTCCTAATCTTTCTGTTCAAGCGCCATCTAC”, the binding signal was 1.07 RPM ratio (pull-down/input).

Take “GATGATTGTTCTCCCAGCTGATGAATTCTTCACCTCGAGTAAACAAATTTTCCTAATCTTTCTGTTCAAGCGCCATCTAC”: the binding signal was 0.802 RPM ratio (pull-down/input).

On to “GATGATTGTTCTCCCAGCTGATGAATTGGAATCGTCGAGTAAACAAATTTTCCTAATCTTTCTGTTCAAGCGCCATCTAC”, for which the binding signal was 0.827 RPM ratio (pull-down/input).

For the sequence “GATGATTGTTCTCCCAGCTGATGAATTCCGGTCGTCGAGTAAACAAATTTTCCTAATCTTTCTGTTCAAGCGCCATCTAC”, the binding signal is 0.776 RPM ratio (pull-down/input).

In the case of “GATGATTGTTCTCCCAGCTGATGAATTCAGTCCCTCGAGTAAACAAATTTTCCTAATCTTTCTGTTCAAGCGCCATCTAC”, the binding signal is 0.794 RPM ratio (pull-down/input).

Take “GATGATTGTTCTCCCAGCTGATGAATTGACCTTGTCGAGTAAACAAATTTTCCTAATCTTTCTGTTCAAGCGCCATCTAC”: the binding signal was 0.868 RPM ratio (pull-down/input).

With “GATGATTGTTCTCCCAGCTGATGAATTTACGTATTCGAGTAAACAAATTTTCCTAATCTTTCTGTTCAAGCGCCATCTAC”, the binding signal is 1.45 RPM ratio (pull-down/input).

As to “GATGATTGTTCTCCCAGCTGATGAATTATTAGGCTCGAGTAAACAAATTTTCCTAATCTTTCTGTTCAAGCGCCATCTAC”, the binding signal was 0.956 RPM ratio (pull-down/input).

“GATGATTGTTCTCCCAGCTGATGAATTGTGCAACTCGAGTAAACAAATTTTCCTAATCTTTCTGTTCAAGCGCCATCTAC”: the binding signal was 1.29 RPM ratio (pull-down/input).

The record behind these values is publication PMC12820563, “FoxP3 forms a head-to-head dimer in vivo and stabilizes its multimerization on adjacent microsatellites”.
